The supplement of paper PMC12632987
The full ranking holds about 4,500 sequences; the median of “median log2 fold change of GCK-ALFA target abundance (FLAG IP / Myc IP barcode read proportion)” is about 0.078, and the lowest 2% start at about -0.6. The list shows a part of the results.

B1: GBRAP_184_5301 (protein)
chain: KVKNVFVEADTAEEAIAQIEKLAKEAKEAGVKLNIYLELKNISIEGFKEIAEKLKELKEAGIIEDATIEILDDLSEEEIDERIKIADEAGVKLVVALSDE
B2: GBRAP_52_5935 (protein)
chain: MRERIRELVERLVELVKEGKLEEARKLAREIVETLSEEELRLFIEELAELARTAPKEDIDYILEAAEIVAEEMERGGWDEVLADELLARVAAAAYENLQR
B3: GBRAP_160_4363 (protein)
chain: SPELKALAEEIEELRKEFEEEAKDLSPEEVRILGKGVLSEIGALIWSNPAVSDETEDKIFEIIDKALKEIDAKKDASPEEIVAIVTKAADEIIKLVREEA
B4: GBRAP_160_4575 (protein)
chain: SAAMEKLIEEIKKLTEEALELLEDESYEQRLAVVRVLGGDILLLLEENPEASEELEEEAAAIMDELVATLEANPDLTAEEIKALVKEATEKIIELIKKEA
B5: GBRAP_11_2653 (protein)
chain: KKEVLKEAAKLAAEAAATVDQLIAAGVDDAELRAKATALINELRELVKKHGSPALQSEVDVAVELWEELLADPANAEAYARELRAALRVLEGNFLLEIEE
B6: GBRAP_128_3493 (protein)
chain: STAEAVAQTRRLMEAIGRADPEERRRLTRELVALMASADPETAEAMADEAIELLPTLSAEALEVVADTLAELQPSLDPYVANLVADIRVEALNEREEKEE
B7: GBRAP_43_5795 (protein)
chain: DKEWVEGALDFAETALETPEITDETKAKIVVDAIEIAIEEGLLTPEELKKLLEKLEKSVSPEVAAKALEEILKKAKELGAPKELLKVIEEALKRAKKKLE
B8: GBRAP_52_6039 (protein)
chain: MEEEMRRKAEEIVELVKAGRRAEAEARIRELVATWSEEELELLGEELARLAREAEPEDLDAVMEAALMLADALEAAGYDPAFADDLLARVAAAAVENLQR
B9: GBRAP_80_6791 (protein)
chain: AEEELKEYLEEIEKLDKEIAERVKRIVERAKELGVSLETLAEFAKAIAELLKVDKEKAREIVEELEEVLEEEEEEGNRENAEAALRVYAGQALLEVEELE
B10: GBRAP_160_4769 (protein)
chain: KEKLKELKKEVEEIFEEYIELLKESEKEEAVTIVRGAAGEVLMEVMSSDAASEELEEKIAKILDETIKTAEENADKPVEWFIKLLEESKKKILELIEKEI
B11: GBRAP_57_6473 (protein)
chain: MERLKKVEEHAERALRLIEEGAPEEEILEEIRKMLEELSEETLRDILLIADPSAEYDISKEEAIERLLELARRYLEEGDLEKVRRLVELIEGEAEMEATE
B12: GBRAP_166_4902 (protein)
chain: NNKEKIEKLKKEAEELIKKFEEADEEEAWELVIEFGEILEELKKLGMEEEEILELVRKLLKVAKEKGFNVRVVAGIIANVADFDEEELDKLDEIVEEVEA
B13: GBRAP_80_6751 (protein)
chain: ARARLEAALAELKALDPELGARLAAVLERALEAGVDARVLARTVEALVELAKLDLEKARELAERLIAELTAALEAGDLEAATAVLVDAESDALLAVEELE
B14: GBRAP_125_2992 (protein)
chain: SEEAVLADLATVLRALGFDDEDVEEAVALARAHGVRGTMYAALLALGYEELADLVAKLTEEETREALRRVAAELAANPDLTPEEVKELLLRVLKEILARR
B15: GBRAP_139_3738 (protein)
chain: AAPEAIVAAAAAAARALRDDPDALADYLVEQIKAVDEETAAAIVAAAMAALADLPVDRQLEIVDRVLEKLEEAGVSEDKRDVAEAELNGGLARHAAAEEA
B16: GBRAP_52_6286 (protein)
chain: SEEEVREVAEEILRLIEEGDLEGALELARKFAEESSLEEVLRLAEELIERSKELPKEKLDMAFEVIEELAEGIEELFGAEEEADILEARAAAAIYEALQA
B17: GBRAP_78_6705 (protein)
chain: EVEELIDKAIEELNKAAKLLVPLKTELANDALGHIVDAATYLEESEEKGVDLELLKEAKEHIEKAIELAKKLDSEKKPEILKHLTEALKLVEEAIKLVKK
B18: GBRAP_160_4569 (protein)
chain: SPAHEALIKEIREIAEEAIEFIKGQNFEERLNIVRVAAGEILLLLDENPEVSEETLDKADEIFDELIATIEANPDLTEEEIQALLREAVEKVIELIKKES
B19: GBRAP_160_4619 (protein)
chain: SEKVEELKKFVEEEFEETKEMIVGQTPEERAAIVDVTIGEIILEAEELEVVSDETLDEIDEIGDELVETILANPDLTDEEIKALIDEAREKIIALIEKDE
B20: GBRAP_78_6596 (protein)
chain: EVEELLDEAIEHLDKAAKLAKKLPEEKSNELLDLIVEAMSDILLAIENGFDLELLEEAKKYVKEAIEEAKKFNHPEAPEIIKELEKALELLEKAIELVKK
B21: GBRAP_52_5911 (protein)
chain: MRERLRALAEEALALVRAGDEEGARALLRRLAEELNDEELEEFIEEVAELVLAAPREELPAFERLAEIAAEELEREGRDEVLADDLLARTAAAIHEVLQR
B22: GBRAP_52_6233 (protein)
chain: MEERARELAEELLALALAGDEEGLRKKVKEIVKNESDEFIKLLVDVLAERLRTGDEAEAEAAERVLELLAKELEEEGKDEVLADYVESRLAAAAYEREQA
B23: GBRAP_137_3645 (protein)
chain: MNVTITKKTYGDLVEITITADDPEKAEEVKEMIEDIAVEKGALAISTEINEDGTLEAVIWVPKDKADALIKAITEKLKTEFGATVTIIDEDTGETKVIKP
B24: GBRAP_35_5618 (protein)
chain: MSDEELTDMLVDLIEDATAAVPDVSVETLAAIAASLSRAVRSLAEELAGNAENLRRLADAVEALRDAIERHHGDDPLAQETIAALTATAEEIRARAAASE
B25: GBRAP_39_5654 (protein)
chain: EEEEENELIFSYLIALAEKYRVEKGISEEELLEEGRELLEKMAEEHPEIAELVEKALEKMEEGDEETKEAIVGIALLYERGEPLEEIKEYLESLLKYIES
B26: GBRAP_160_4313 (protein)
chain: MEELEELKKEIEEIVEEAKKMLEGESAEQRKTIARVTLGEILLLAFENEAISDELEEKIAEIVDAAEAEIDANPDLTEEELKALLEKTREEILKLIDESE
B27: GBRAP_125_3038 (protein)
chain: SEEEVIEALAELARRLGLSEEEVEELARLAREHGAKGALIALLLAEGEEELAELAAKLSDEALAEVLKKLLAWLKAHPDATAEEALAKLKELLLEALAKQ
B28: GBRAP_184_5135 (protein)
chain: ELVRRAVESEKAEELIEEAEKVVKEAAAAGKKLFLAVFAENMSVEEVIKVIKRLGELKKKYPQVEVLVDVLDERSEEEIDKLVKAADEAGVRLVVAISDE
B29: GBRAP_128_3524 (protein)
chain: SVEEAKKRAEEVVEKIKNSTVEEAYAITKELLDELLTLSLEEVKAVADVLIEKMPELSAEKLDAVADAIDENLGKFSPEKQQELNGVRVEALNEAEEKEE

Biological target: GABARAP, O95166
Sequence (O95166 whole entry, the tested form may be a part): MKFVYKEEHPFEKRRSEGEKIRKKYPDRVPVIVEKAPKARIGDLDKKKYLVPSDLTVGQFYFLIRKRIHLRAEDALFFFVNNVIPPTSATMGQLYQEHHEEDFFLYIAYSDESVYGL
Assay: median log2 fold change of GCK-ALFA target abundance (FLAG IP / Myc IP barcode read proportion) (log2 ratio); each designed protein is fused to an ALFA-tag nanobody in HEK293 cells to bring the named protein to FLAG-tagged glucokinase (GCK); Myc marks an untargeted standard; higher = target protein stabilised (more abundant)
Details: target protein: 3xFLAG-MCP-GCK-ALFA reporter; HEK293 landing pad (RPLP)
Method in brief: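 HEK293 landing-pad cells received a recombined binder library fused to the ALFA nanobody and were induced with 2 μg mL^−1 doxycycline, then transfected with a plasmid encoding a FLAG-tagged target and a Myc-tagged standard. Lysates were collected after 48 h for anti-FLAG and anti-Myc immunoprecipitation, and the circular RNA barcodes were reverse transcribed, amplified and sequenced. Target abundance for each binder is the median log2 ratio of FLAG to Myc barcode read proportions. Barcodes had to reach a proportion of at least 10^−7 in both replicates, each binder needed at least 3 barcodes per replicate, a pseudocount of 10^−6 was applied, and the two replicates were pooled.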

Row | Binder | median log2 fold change
1 | B1 | -0.0228
2 | B2 | 0.112
3 | B3 | -0.231
4 | B4 | 0.0746
5 | B5 | 0.269
6 | B6 | 0.206
7 | B7 | -0.0146
8 | B8 | -0.911
9 | B9 | -0.0155
10 | B10 | 0.115
11 | B11 | 0.161
12 | B12 | -0.0212
13 | B13 | 0.00942
14 | B14 | -0.12
15 | B15 | -0.219
16 | B16 | -0.541
17 | B17 | 0.17
18 | B18 | -0.213
19 | B19 | -0.678
20 | B20 | 0.17
21 | B21 | 0.00867
22 | B22 | 0.389
23 | B23 | 0.215
24 | B24 | -1.48
25 | B25 | -0.0617
26 | B26 | -0.284
27 | B27 | -0.0535
28 | B28 | 0.0538
29 | B29 | 0.221
